Test results taken from PubChem BioAssay AID686978 (National Center for Advancing Translational Sciences (NCATS), 2013).
Screen size: about 420,000 compounds; about 64,000 (15%) were called active. This list was built around the results that the source calls inconclusive (neither active nor inactive); the mix of calls is not that of the screen. Calls come from the whole dose curve; as a rule, active = well fitted inhibition curve with a large enough effect; inconclusive = small, poorly fitted or top-dose-only effect; inactive = flat fitted curve, though single readings scatter. No potency is given beside an inconclusive call; the fits are too rough.

Assay: qHTS for Inhibitors of human tyrosyl-DNA phosphodiesterase 1 (TDP1): qHTS in cells in absence of CPT; note: nearly all actives have a fitted effect of over 55% in size
Conditions: DT40 Tdp1-/- hTDP1 cells, no CPT, ATP luminescence, 48 h; series mostly up to 46.2 µM
Outline: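 Compound effects on proliferation are scored in DT40 Tdp1-/-;hTDP1 cells in the absence of CPT. ATP levels (CellTiter-Glo luminescence) are recorded after a ≥48 hr, 37 °C incubation.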
Potency is the fitted concentration of half-maximal effect; tags give direction and shape of the fitted curve.

SMILES | Potency
COc1ccc(CN(C(=S)Nc2ccccc2)C2CC(=O)N(c3ccccc3)C2=O)cc1 (stereo not drawn) | inconclusive [inhibitor, single point]
CCOc1cc(CNCCSc2nnnn2C)cc(Br)c1OCc1ccc(F)cc1 | inconclusive [inhibitor, single point]
Cc1ccc(OCCn2cc(C(=O)C3CCCCC3)c3ccccc32)cc1 | active: 18.4 µM
CC(=O)N1CCN(c2ccccc2NC(=O)COc2ccc(Cl)cc2Cl)CC1 | inconclusive [inhibitor, single point]
CCCCCCNc1nc(NCc2ccco2)nc(OCC)n1 | active: 18.4 µM
COc1ccccc1NC(=O)C(C)OC(=O)C1CCN(S(=O)(=O)c2ccc(C)c(C)c2)CC1 (stereo not drawn) | inconclusive [inhibitor, partial curve]
C[n+]1ccc(/C=N/Nc2nc(Cl)c(C#N)c(Cl)c2Cl)cc1 | inconclusive [inhibitor, partial curve]
CCOC(=O)C1CCN(C(=O)Cn2nc(C)n3nc(-c4ccc(CC)cc4)cc3c2=O)CC1 | inconclusive [inhibitor, single point]
O=C1C=CN2CCCCC2CC1 (stereo not drawn) | active: 16.4 µM
CCc1ccc2c(c1)C(c1ccc([N+](=O)[O-])cc1)=NNC(c1ccc(Br)cc1)=N2 | inconclusive [inhibitor, single point]
CCN(C(=S)Nc1ccc(C(C)=O)cc1)C1CCCCC1 | inactive
CC(=O)N(Cc1cc2ccccc2[nH]c1=O)c1ccc(C)cc1 | inconclusive [inhibitor, single point]
CCN(CC)C(=O)[C@H]1C[C@H](CC(=O)NCc2cccc(C(F)(F)F)c2)C(=O)N2CCc3c([nH]c4cc(-c5ccco5)ccc34)[C@]12C | inconclusive [inhibitor, single point]
COc1ccc(S(=O)(=O)N(CC(=O)NCCSc2ccccn2)c2ccccc2)cc1 | inconclusive [inhibitor, single point]
CN1C(=O)[C@H]2[C@@H](c3ccc(C(F)(F)F)cc3)N[C@]3(CCCN(Cc4ccc(C(F)(F)F)cc4)C3=O)[C@H]2C1=O | active: 18.4 µM
Cc1ccc2[nH]c3c(=O)n(CC(=O)NCc4ccco4)ncc3c2c1 | inactive
O=c1[nH]c(C2CCN(S(=O)(=O)c3ccccc3C(F)(F)F)CC2)nc2c1nnn2Cc1ccccc1 | inconclusive [inhibitor, single point]
CCCCCCCCCCCCCCNCCO | inconclusive [inhibitor, single point]
COc1cccc(S(=O)(=O)Nc2ccc3c(c2)[C@H]2C[C@H](CC(=O)N[C@@H](C)c4ccccc4)O[C@H](CO)[C@H]2O3)c1 | active: 14.6 µM
O=C(Cc1ccsc1)Nc1ccc(Cl)cc1Cl | inactive
O=S(=O)(c1ccccc1)N1CCN=C1SCc1ccc(Cl)cc1 | active: 18.4 µM
Cc1ccc(NC(=O)CSc2ncccn2)cc1S(=O)(=O)N1CCCCC1 | inactive

SMILES | Potency
COC(=O)C1=C(O)/C(=C/c2cccc(OC)c2O)N=C1C | inconclusive [inhibitor, partial curve]
Cc1ccc(C)c(N2CCN(C(=O)CCC(=O)Nc3ccc4nc(N5CCCCC5)cc(C)c4c3)CC2)c1 | active: 11.6 µM
Cc1ccc(C)c(N2CCN(Cc3nnnn3C3CCCCC3)CC2)c1 | inconclusive [inhibitor, single point]
COc1ccc(C(=O)c2ccc(CC(=O)O)s2)cc1 | inactive
Clc1ccccc1OCCN1CCC(Cc2ccccc2)CC1 | inconclusive [inhibitor, single point]
C=CCn1c(SCc2ccccc2C#N)nnc1-c1cc(Br)ccc1O | inconclusive [inhibitor, single point]
CC(OC(=O)c1cccc(-n2cnnn2)c1)C(=O)NCc1ccccc1 (stereo not drawn) | inactive
COc1ccc2[nH]cc(CCNc3ccnc(-c4ccc5c(c4)OCO5)n3)c2c1 | inconclusive [inhibitor, single point]
COc1cc(NC(=O)c2cc(C3CC3)on2)c(OC)cc1Cl | inconclusive [inhibitor, partial curve]
CC(C)(C)OC(=O)C[C@H]1C/C=C\C[C@H](CC(=O)NCCO)C(=O)N2CCC[C@@H]2COC1=O | inactive
O=C(NCc1ccc(Cl)cc1)c1ccc2c(Cl)c3c(nc2c1)CCCC3 | inconclusive [inhibitor, single point]
COc1cc(O)c(C(CC(=O)N2CCN(c3ccccc3)CC2)c2cc(OC)c(OC)c(OC)c2)c(OC)c1 (stereo not drawn) | inconclusive [inhibitor, single point]
O=C(CSc1nc2ccccc2c(=O)n1NC(=O)Cc1ccccc1)NCCc1ccccc1 | inactive
CCc1sc(NC(=O)CN2CCOCC2)nc1-c1ccccc1 | inconclusive [inhibitor, partial curve]
Cc1cc(C)n(CCC(=O)N2CCCC(N3CCN(c4cccc(Cl)c4)CC3)C2)n1 (stereo not drawn) | inconclusive [inhibitor, single point]
CCOC(=O)c1cccc(NC(=O)CCCn2nc(C)c3c(C)n(-c4ccccc4)nc3c2=O)c1 | inconclusive [inhibitor, partial curve, poor fit]
CCOC(=O)c1c(C)n(-c2ccccc2)c2ccc(OC(=O)c3ccccc3NC(=O)C(C)C)cc12 | active: 18.4 µM
Cc1cc(NC(=O)C2CCCN(S(=O)(=O)c3cnc[nH]3)C2)ccc1Br (stereo not drawn) | inconclusive [inhibitor, single point]
C=CCn1c(SCC#N)nc2ccc(Cl)cc2c1=O | inactive
CCCCn1nnnc1C(c1cc2ccccc2o1)N1CCCCC1 (stereo not drawn) | inconclusive [inhibitor, partial curve, poor fit]
COc1ccc(-c2nc3cc(C(C)C)ccc3o2)cc1NC(=O)c1ccccc1[N+](=O)[O-] | active: 10.3 µM
